According to PubChem BioAssay AID1460 (National Center for Advancing Translational Sciences (NCATS), 2008):
Among all 270,000 compounds or so, about 5,800 (2.1%) were called active. This list was built around the results that the source calls inconclusive (neither active nor inactive); the mix of calls is not that of the screen. The call rests on the fitted dose curve; in most records, active means well fitted inhibition curve with a large enough effect; inconclusive means small, poorly fitted or top-dose-only effect; inactive means flat fitted curve, though single readings scatter. Where the call is inconclusive, the potency comes from a doubtful curve fit.
Further: nearly all actives have a fitted effect of over 55% in size.
On the % scale 0 is the no-effect control and ±100 the full control effect; potency means the concentration at half of the fitted maximal effect; tags describe the fitted curve by direction and shape.

These compounds were tested against Microtubule-associated protein tau (Homo sapiens) (UniProt P10636) (assay: qHTS for Inhibitors of Tau Fibril Formation, Thioflavin T Binding). Settings: recombinant tau K18 P301L (four-repeat tau fragment), heparin-induced fibrillization, ThT fluorescence; series mostly up to 57.4 µM; activity, negative = inhibition: at the top concentration.
Chain of UniProt P10636 (P10636 whole entry, looked up, the tested form may be a part): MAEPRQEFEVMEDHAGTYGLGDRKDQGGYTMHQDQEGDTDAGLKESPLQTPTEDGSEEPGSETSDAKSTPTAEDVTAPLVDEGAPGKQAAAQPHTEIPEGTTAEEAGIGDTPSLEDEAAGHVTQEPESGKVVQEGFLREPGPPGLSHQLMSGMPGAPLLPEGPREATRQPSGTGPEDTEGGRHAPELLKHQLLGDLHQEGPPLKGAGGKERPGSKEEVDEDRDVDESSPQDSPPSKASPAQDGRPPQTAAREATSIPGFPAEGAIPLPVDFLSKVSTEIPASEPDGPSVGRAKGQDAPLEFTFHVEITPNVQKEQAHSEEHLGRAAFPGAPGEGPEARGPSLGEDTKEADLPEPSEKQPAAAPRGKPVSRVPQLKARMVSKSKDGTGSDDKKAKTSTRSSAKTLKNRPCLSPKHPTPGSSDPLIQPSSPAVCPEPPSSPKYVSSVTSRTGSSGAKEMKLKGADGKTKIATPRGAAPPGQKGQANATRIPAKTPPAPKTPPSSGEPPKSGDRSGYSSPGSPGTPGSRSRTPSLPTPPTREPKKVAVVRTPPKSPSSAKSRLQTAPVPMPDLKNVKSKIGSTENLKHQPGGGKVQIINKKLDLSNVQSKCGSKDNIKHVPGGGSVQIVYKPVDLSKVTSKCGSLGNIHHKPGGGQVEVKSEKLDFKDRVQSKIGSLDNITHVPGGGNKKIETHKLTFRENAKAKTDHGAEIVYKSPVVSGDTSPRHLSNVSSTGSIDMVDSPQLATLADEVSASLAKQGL
Method in brief: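 Aggregation was driven by heparin (20 uM final) acting on recombinant tau […] bearing P301L in 100 mM sodium acetate pH 7; fibrils were detected with Thioflavin T.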
`CC1CCc2c(sc(NC(=O)c3ccc(-c4ccccc4[N+](=O)[O-])o3)c2C#N)C1` (centres undefined) was tested, and the Potency was inconclusive: 6.31 µM [inhibitor, partial curve]. `CCOc1ccc(Nc2nc(Cc3nnc(SCC(=O)c4ccc(C)c(C)c4)o3)cs2)cc1` was tested, and the Potency was inconclusive: 2.82 µM [inhibitor, full curve]. With `CC1(C)Cc2c(C#N)c(N)n(-c3ccccc3)c(=S)c2CO1` the Potency was inconclusive: 5.01 µM [inhibitor, partial curve, poor fit]. For `Oc1ccc2ccccc2c1C=Nc1cc(C(F)(F)F)ccc1N1CCCC1`, the Potency was inconclusive: 28.2 µM [inhibitor, partial curve]. For `O=C(NCCCCc1ccccc1)c1nn(-c2ccccc2)nc1CO`, the “activity, negative = inhibition” value was inactive: -12.9%. With `Cc1ccc(S(=O)(=O)n2nc(OC(=O)c3c(-c4ccccc4Cl)noc3C)cc2N)cc1` the Potency was inconclusive: 12.6 µM [inhibitor, partial curve]. For `COc1cc([N+](=O)[O-])ccc1NC(=O)CCCOc1cccc(C)c1`, the Potency was inconclusive: 22.4 µM [inhibitor, single point]. For `Cn1c(=O)oc2cc(S(=O)(=O)N3CCCC(C(=O)N4CCN(c5cccc(Cl)c5)CC4)C3)ccc21` (centres undefined), the “activity, negative = inhibition” value was inactive: -4.99%. For `CC(=O)Nc1cccc(OCC(=O)Nc2ccc(F)cc2)c1`, the “activity, negative = inhibition” value was inactive: -3.44%. For `COc1ccc(-n2cc(-c3ccccc3)c3c(NCCc4ccc(OC)c(OC)c4)ncnc32)cc1`, the Potency was inconclusive: 8.91 µM [inhibitor, partial curve]. `O=[N+]([O-])c1cc(-n2cccc2)ccc1N1CCOCC1` was tested, and the Potency was inconclusive: 31.6 µM [inhibitor, partial curve]. With `CCCc1cnc2c(c1SCC(=O)Nc1cccc(C)c1C)c(=O)n(C)c(=O)n2C` the Potency was inconclusive: 44.7 µM [inhibitor, single point]. In the case of `CCOC(=O)c1ccc(NC(=O)c2c(NCc3cc(OC)c(OC)cc3OC)sc3c2CCCC3)cc1`, the Potency is reported as inconclusive: 8.91 µM [inhibitor, partial curve]. In the case of `CC1C/C(=C\c2cccnc2)C(=O)/C(=C/c2cccnc2)C1` (centres undefined), the Potency is reported as active: 7.08 µM. For `O=C(COc1ccc([N+](=O)[O-])cc1)Nc1ccc2c(c1)OCO2`, the Potency was inconclusive: 31.6 µM [inhibitor, partial curve]. For `COc1ccc(/C=C/C(=O)NCCSCc2ccco2)cc1OC`, the Potency was inconclusive: 10 µM [inhibitor, partial curve, poor fit]. For `COc1ccc(C(=O)COC(=O)CCc2nc3ccccc3[nH]c2=O)cc1Br`, the Potency was inconclusive: 0.501 µM [inhibitor, full curve]. For `CCC(=O)Nc1cccc(-c2nc3ccccc3o2)c1`, the “activity, negative = inhibition” value was inactive: -14.7%. With `Cc1cc(-c2nc3ncccc3o2)ccc1NC(=O)c1ccc(Cl)cc1` the Potency was inconclusive: 1.58 µM [inhibitor, full curve]. For `CCOc1ccc(S(=O)(=O)NCC(c2ccc(N(C)C)cc2)N2CCc3ccccc32)cc1` (centres undefined), the Potency was inconclusive: 14.1 µM [inhibitor, partial curve]. `Cc1ccc(C)c(NC(=O)c2cc3ccccn3n2)c1` was tested, and the Potency was inconclusive: 12.6 µM [inhibitor, partial curve]. In the case of `CCCCN(C)S(=O)(=O)c1cc(-c2cc(C)no2)ccc1C`, the Potency is reported as inconclusive: 28.2 µM [inhibitor, single point]. `Cc1nc(-c2cccc(F)c2)sc1CCNC(=O)C(=O)Nc1ccc2c(c1)OCO2` was tested, and the Potency was inconclusive: 1.58 µM [inhibitor, full curve]. In the case of `COc1ccc(C(=O)NCC(=O)N=Nc2c(O)n(Cc3ccccc3)c3ccccc23)cc1OC`, the Potency is reported as inconclusive: 15.8 µM [inhibitor, partial curve]. In the case of `COc1cccc(Nc2nnc(SCC(=O)Nc3sccc3C(N)=O)s2)c1`, the Potency is reported as inconclusive: 28.2 µM [inhibitor, single point]. `O=C(N=Nc1c(O)n(Cc2ccccc2)c2ccccc12)c1ccc(O)cc1` was tested, and the Potency was active: 14.1 µM. `Cc1ccc(-c2nc3ncccc3o2)cc1NC(=O)c1ccc(-c2cccc(Cl)c2C)o1` was tested, and the “activity, negative = inhibition” value was inactive: -2.31%. With `Cc1cccc(N2CCN(c3ncnc4onc(C)c34)CC2C)c1` (centres undefined) the Potency was inconclusive: 15.8 µM [inhibitor, partial curve]. In the case of `Cc1cc2nc(/N=C(\N)NC(=O)N3c4ccccc4Sc4ccccc43)nc(C)c2cc1C`, the Potency is reported as inconclusive: 10 µM [inhibitor, partial curve]. For `O=C(NCS(=O)(=O)c1ccccc1)c1ccccc1`, the Potency was inconclusive: 14.1 µM [inhibitor, partial curve]. For `Cc1ccc(OCC(=O)N/N=C\c2cccs2)c([N+](=O)[O-])c1`, the Potency was inconclusive: 25.1 µM [inhibitor, single point]. With `O=C(O)c1cc(NN=Nc2cccc([N+](=O)[O-])c2)cc([N+](=O)[O-])c1` the Potency was inconclusive: 4.47 µM [inhibitor, partial curve]. `COc1ccc(CNC(=O)C/C(C)=N/NC(=O)COc2cccc(C)c2)cc1` was tested, and the “activity, negative = inhibition” value was inactive: -13.2%. For `Cc1ccc(C(=O)n2nc(-n3cccc3)c3c(C)cc(C)nc32)cc1`, the “activity, negative = inhibition” value was inactive: -6.17%. For `CCOc1ccc(NC(=O)c2c(NC(=O)c3ccccc3Br)sc3c2CCC(C)C3)cc1` (centres undefined), the Potency was active: 14.1 µM. For `CCCn1c(-c2cccs2)nc2nc3ccccc3nc21`, the Potency was inconclusive: 31.6 µM [inhibitor, single point]. In the case of `CN(c1ccc(C(=O)NC2CC3CCC2C3)cc1)S(C)(=O)=O` (centres undefined), the “activity, negative = inhibition” value is reported as inactive: -2.71%. With `COc1ccccc1-c1cc(C(=O)N/N=C/C=C/c2ccccc2[N+](=O)[O-])c2ccccc2n1` the “activity, negative = inhibition” value was inactive: -9.5%. With `COc1ccc(-c2nc3cc(NC(=O)c4cc5ccccc5o4)ccc3o2)cc1` the Potency was inconclusive: 0.447 µM [inhibitor, full curve]. In the case of `Cn1c(=O)n(C)c2cc(N3CCCCC3)c(NC(=O)c3c(F)cccc3F)cc21`, the Potency is reported as inconclusive: 25.1 µM [inhibitor, single point]. With `O=C(O)/C(=C\c1ccc(-c2ccc(F)cc2)o1)c1ccccc1` the Potency was inconclusive: 10 µM [inhibitor, partial curve]. `COCC#Cc1ccc(C2NC(C(=O)O)CCC2C)cc1` (centres undefined) was tested, and the activity, negative = inhibition was inactive: -1.97% [at 11.5 µM]. With `COc1ccc(-c2ccc(SCC(=O)c3cccs3)nn2)cc1OC` the Potency was inconclusive: 8.91 µM [inhibitor, partial curve]. In the case of `COc1ccc(S(=O)(=O)CCC(=O)NC2CCCCC2)cc1`, the “activity, negative = inhibition” value is reported as inactive: -4.58%. In the case of `CN(C)c1ccc(NC(=O)C(=O)C2C(=O)Nc3ccccc32)cc1` (centres undefined), the Potency is reported as active: 14.1 µM. In the case of `CC(Sc1nnnn1-c1ccc(O)cc1)c1nc2ccccc2c(=O)[nH]1` (centres undefined), the “activity, negative = inhibition” value is reported as inactive: 2.02%. For `CCCCCCCC[n+]1c(C)n(-c2ccccc2)c2ccc(NC(C)=O)cc21`, the “activity, negative = inhibition” value was inactive: -6.57%. `COc1ccc(C(=O)NCC(c2ccco2)S(=O)(=O)c2cccs2)cc1` (centres undefined) was tested, and the “activity, negative = inhibition” value was inactive: 2.74%. With `C[N+]1=C(/C=C/Nc2ccccc2Cl)C(C)(C)c2ccccc21` the Potency was active: 28.2 µM. `Cc1ccccc1Nc1c(-c2ccc(N3CCOCC3)cc2)nc2ccc(Cl)cn12` was tested, and the Potency was inconclusive: 14.1 µM [inhibitor, partial curve]. For `COCCN(C(=O)Cc1cccs1)C(C(=O)NCc1ccc(OC)cc1)c1ccc(C(C)C)cc1` (centres undefined), the Potency was inconclusive: 35.5 µM [inhibitor, partial curve]. In the case of `C=CC(C1=CC(=O)C=CC1=O)c1ccccc1` (centres undefined), the Potency is reported as inconclusive: 17.8 µM [inhibitor, partial curve]. In the case of `CC1=NN(C(=O)COc2cc(C)ccc2C(C)C)C(O)(c2ccccc2)C1` (centres undefined), the Potency is reported as inconclusive: 3.98 µM [inhibitor, full curve, poor fit]. `Cc1cc(O)c(C(=O)/C=C/c2cccc([N+](=O)[O-])c2)c(=O)o1` was tested, and the Potency was inconclusive: 25.1 µM [inhibitor, partial curve]. `O=C(CSCc1ccc([N+](=O)[O-])cc1)N/N=C/c1ccncc1` was tested, and the Potency was inconclusive: 20 µM [inhibitor, single point]. `O=C(N/N=C1\CCS(=O)(=O)c2ccc(F)cc21)c1ccc(O)cc1` was tested, and the “activity, negative = inhibition” value was inactive: 2.16%. For `O=C(O)CCc1ccc(-c2ccc(Br)cc2)n1Cc1ccco1`, the Potency was inconclusive: 28.2 µM [inhibitor, partial curve]. `Cc1cccc(NC(=O)c2c(N)sc3c2CCC(C)C3)c1` (centres undefined) was tested, and the Potency was active: 8.91 µM. For `C[C@H](NC(=O)c1nc[nH]c1C(=O)NCc1ccc(CNC(=O)OC(C)(C)C)cc1)C(=O)OC(C)(C)C`, the Potency was inconclusive: 39.8 µM [inhibitor, single point]. In the case of `CCc1cccc(C)c1NS(=O)(=O)c1ccc(-c2cc(C)no2)s1`, the “activity, negative = inhibition” value is reported as inactive: 6.56%. For `COc1ccc(-c2cccc(NS(=O)(=O)c3cc(C)ccc3OC)c2)nn1`, the “activity, negative = inhibition” value was inactive: -0.215%. For `Cc1nc(N2CCN(C(=O)CCC(=O)O)CC2)c2c(C)c(C)sc2n1`, the “activity, negative = inhibition” value was inactive: 0.78%. `C=CCn1c(=S)[nH]c2sc3c(c2c1=O)CCC3` was tested, and the “activity, negative = inhibition” value was inactive: 2.27%. With `COC(=O)/C(=C\Nc1ccc(OC)cc1)NC(=O)c1ccc(Cl)cc1Cl` the Potency was inconclusive: 3.16 µM [inhibitor, partial curve, poor fit]. With `COc1ccc2cnn(CCOc3cc(C)ccc3C(C)C)c(=O)c2c1OC` the Potency was inconclusive: 25.1 µM [inhibitor, single point]. `O=C(Cn1ncc(N2CCCC2)c(Br)c1=O)c1ccc(Cl)cc1` was tested, and the Potency was inconclusive: 20 µM [inhibitor, single point]. In the case of `Cc1ccc(NCc2cccn2-c2nnc(N3CCC(C(=O)NCc4ccc(F)cc4)CC3)s2)cc1`, the Potency is reported as inconclusive: 17.8 µM [inhibitor, partial curve]. `Cc1cccc(OCC(=O)Nc2ccccc2OCc2cc(=O)n3cc(C)ccc3n2)c1` was tested, and the “activity, negative = inhibition” value was inactive: 2.04%. With `O=C(Nc1ccc2nc(SCC(=O)N3CCOCC3)sc2c1)c1ccccc1Cl` the “activity, negative = inhibition” value was inactive: -8.3%.
